According to the supplement of paper PMC8285479:
Counter-ions that a name gives are not always drawn. ± gives the standard deviation of the averaged measurements. In all, about 1,900 compounds were measured (“normalised cell viability (NPI; 0 = phenylarsine oxide control, 1 = DMSO control)”: median about 1, lowest 2% from about 0.039 on). Some of the results follow.

Test system: NCI-H1944
Test: normalised cell viability (NPI; 0 = phenylarsine oxide control, 1 = DMSO control) (fraction of DMSO control); NCI-H1944 is a non-small cell lung cancer line; higher = more viable cells (less compound toxicity)
Conditions: 6 days
[1] = glucocorticoid arm: hydrocortisone 2.75 uM co-treatment, compound 1 µM
[2] = glucocorticoid arm: hydrocortisone 2.75 uM co-treatment, compound 5 µM
[3] = glucocorticoid arm: hydrocortisone 2.75 uM pre-treated 2 days and continued, compound 1 µM
[4] = glucocorticoid arm: hydrocortisone 2.75 uM pre-treated 2 days and continued, compound 5 µM
[5] = glucocorticoid arm: vehicle, compound 1 µM
[6] = glucocorticoid arm: vehicle, compound 5 µM
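Further: CTB read-out in 384-well plates, mean of triplicate wells, normalised per plate against 1 µM phenylarsine oxide and 0.1% DMSO, compounds added 24 h after seeding.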

Row | Compound | normalised cell viability [1] | normalised cell viability [2] | normalised cell viability [3] | normalised cell viability [4] | normalised cell viability [5] | normalised cell viability [6]
1 | NC(=O)CNCCC(c1ccccc1)c1ccccc1 [N-(3,3-Diphenylpropyl)glycinamide] | 1.01 ± 0.012 | 0.995 ± 0.021 | 1.01 | 1 ± 0.029 | 1.003 ± 0.0058 | 1.004 ± 0.0098
2 | C[C@H](NC(=O)/C(C#N)=C/c1cccc(Br)n1)c1ccccc1 | 1.01 ± 0.012 | 1.06 ± 0.032 | 1.02 ± 0.017 | 1.048 ± 0.0075 | 0.9985 ± 0.0098 | 0.0147 ± 0.011
3 | CCNC(=O)Nc1ccc(-c2nc3c(c(N4CCOC[C@@H]4C)n2)CCN(C2COC2)C3)cc1 | 0.956 ± 0.018 | 0.724 ± 0.023 | 0.965 ± 0.015 | 0.77 ± 0.027 | 0.961 ± 0.021 | 0.768 ± 0.066
4 | C[C@]12CC[C@@H]3c4ccc(O)cc4CC[C@H]3[C@@H]1CC[C@@H]2O [beta-Estradiol] | 0.9927 ± 0.005 | 0.954 ± 0.022 | 0.9937 ± 0.0055 | 0.962 ± 0.028 | 0.9753 ± 0.0031 | 0.9807 ± 0.0032
5 | CC(NC(=O)Cc1cc(F)cc(F)c1)C(=O)NC(C(=O)OC(C)(C)C)c1ccccc1 (centres undefined) | 0.983 ± 0.0036 | 0.95 ± 0.016 | 0.999 ± 0.01 | 0.982 ± 0.015 | 0.9947 ± 0.0032 | 0.9877 ± 0.0032
6 | OC(CN1CCC(Cc2ccc(F)cc2)CC1)c1ccc(Cl)cc1 (centres undefined) [Eliprodil] | 0.9487 ± 0.0064 | 0.9277 ± 0.0051 | 0.9827 ± 0.0091 | 0.971 ± 0.0076 | 0.9973 ± 0.0046 | 0.9967 ± 0.0058
7 | C[C@@H](Oc1ccc(Oc2cnc3ccc(Cl)cc3n2)cc1)C(=O)O | 1.004 ± 0.0098 | 0.88 ± 0.023 | 0.858 ± 0.29 | 1.05 ± 0.015 | 1.027 ± 0.0058 | 0.522 ± 0.054
8 | CN(C)CC/C=C1/c2ccccc2Sc2ccc(Cl)cc21 [Chlorprothixene hydrochloride] | 0.995 ± 0.002 | 0.905 ± 0.011 | 1.013 ± 0.0058 | 0.993 ± 0.038 | 0.9977 ± 0.004 | 0.974 ± 0.015
9 | CN(C)CC/C=C1/c2ccccc2Sc2ccc(Cl)cc21 [Chlorprothixene] | 0.983 ± 0.01 | 0.968 ± 0.018 | 0.994 ± 0.025 | 0.981 ± 0.013 | 0.986 ± 0.01 | 0.993 ± 0.0027
10 | N.N.N.N.N.N.N.N.N.N.N.N.N.N.O.O.[Cl-].[Cl-].[Cl-].[Cl-].[Cl-].[Cl-].[Ru+4].[Ru+5].[Ru+5] [Ruthenium red] | 0.991 ± 0.01 | 0.974 ± 0.021 | 1.01 ± 0.027 | 0.987 ± 0.023 | 0.995 ± 0.0052 | 0.973 ± 0.0087
11 | CC(=O)[C@H]1CC[C@H]2[C@@H]3CCC4=CC(=O)CC[C@]4(C)[C@H]3CC[C@]12C [Progesterone] | 1.01 ± 0.01 | 1.037 ± 0.0058 | 1.02 ± 0.01 | 1.08 ± 0.084 | 0.996 ± 0.0035 | 1 ± 0.015
12 | CCOC(=O)CCNc1cc(N2CCc3ccccc3CC2)nc(-c2ccccn2)n1 | 0.9937 ± 0.0035 | 1.02 ± 0.018 | 0.989 ± 0.0076 | 1.02 ± 0.015 | 0.9893 ± 0.0031 | 0.9767 ± 0.0015
13 | CN(C)CCOC(c1ccccc1)c1ccccc1 [Diphenhydramine hydrochloride] | 0.994 ± 0.014 | 0.965 ± 0.014 | 0.992 ± 0.017 | 0.995 ± 0.027 | 0.981 ± 0.002 | 0.9863 ± 0.0042
14 | N=C(N)NC(=O)Cc1c(Cl)cccc1Cl [Guanfacine hydrochloride] | 1.017 ± 0.0058 | 0.986 ± 0.023 | 1.03 ± 0.026 | 1.01 ± 0.027 | 1.017 ± 0.0058 | 1.02
15 | C[n+]1cc2c3c(ccc2c2ccc4cc5c(cc4c21)OCO5)OCO3 [Sanguinarine chloride] | 1.04 ± 0.011 | -0.0014 ± 0.001 | 0.903 ± 0.2 | -0.00109 ± 0.00052 | 0.983 ± 0.037 | -0.000203 ± 0.00043
16 | Nc1ncnc2c1ncn2[C@@H]1O[C@H](CO)[C@@H](O)[C@H]1O [Adenosine] | 0.9973 ± 0.0046 | 1.01 ± 0.01 | 0.995 ± 0.015 | 0.987 ± 0.019 | 1 ± 0.015 | 1.003 ± 0.0058
17 | O=C(c1ccc(Nc2nccc(-c3cc4ccccc4s3)n2)cc1)N1CCC(N2CCCC2)CC1 [IKK-16 (IKK Inhibitor VII)] | 0.901 ± 0.0072 | 0.626 ± 0.03 | 0.913 ± 0.015 | 0.837 ± 0.021 | 0.9453 ± 0.0065 | 0.0503 ± 0.008
18 | CC(=O)O[C@@]12CO[C@@H]1C[C@H](O)[C@@]1(C)C(=O)[C@H](O)C3=C(C)[C@@H](OC(=O)[C@H](O)[C@@H](NC(=O)OC(C)(C)C)c4ccccc4)C[C@@](O)([C@@H](OC(=O)c4ccccc4)[C@H]21)C3(C)C [Docetaxel] | 0.159 ± 0.0035 | 0.163 ± 0.0095 | 0.462 ± 0.023 | 0.518 ± 0.015 | 0.049 ± 0.0034 | 0.0428 ± 0.0097
19 | COc1ccccc1N1CCN(CCN(C(=O)C2CCCCC2)c2ccccn2)CC1 | – | – | – | 1 | – | –
20 | Nc1ccn([C@@H]2O[C@H](CO)[C@@H](O)C2(F)F)c(=O)n1 [Gemcitabine hydrochloride; Gemcitabine HCl] | 0.202 ± 0.0062 | 1.04 ± 0.015 | 0.422 ± 0.044 | 1.03 | 0.0536 ± 0.0027 | 1.013 ± 0.0058
21 | CO[C@H]1C[C@@H]2CC[C@@H](C)[C@@](O)(O2)C(=O)C(=O)N2CCCC[C@H]2C(=O)O[C@H]([C@H](C)C[C@@H]2CC[C@@H](OCCO)[C@H](OC)C2)CC(=O)[C@H](C)/C=C(\C)[C@@H](O)[C@@H](OC)C(=O)[C@H](C)C[C@H](C)/C=C/C=C/C=C/1C [Everolimus (RAD001)] | 0.814 ± 0.02 | 0.765 ± 0.01 | 0.82 ± 0.01 | 0.814 ± 0.038 | 0.732 ± 0.06 | 0.667 ± 0.0087
22 | CO[C@H]1C[C@@H]2CC[C@@H](C)[C@@](O)(O2)C(=O)C(=O)N2CCCC[C@H]2C(=O)O[C@H]([C@H](C)C[C@@H]2CC[C@@H](OCCO)[C@H](OC)C2)CC(=O)[C@H](C)/C=C(\C)[C@@H](O)[C@@H](OC)C(=O)[C@H](C)C[C@H](C)/C=C/C=C/C=C/1C [Everolimus; Everolimus(RAD001)] | 1.023 ± 0.0058 | 0.769 ± 0.019 | 1.02 ± 0.011 | 0.879 ± 0.017 | 1.003 ± 0.0058 | 0.642 ± 0.034
23 | CN(C)CCN(Cc1ccccc1)c1ccccn1 [Tripelennamine HCl] | 1.007 ± 0.0058 | 1 ± 0.026 | 1.01 ± 0.01 | 1 ± 0.033 | 0.9993 ± 0.0011 | 1.01
24 | N=C(N)c1ccc(OCCCCCOc2ccc(C(=N)N)cc2)cc1 [Pentamidine isethionate] | 0.952 ± 0.026 | 0.0941 ± 0.0061 | 1.03 ± 0.025 | 0.792 ± 0.033 | 1.017 ± 0.0058 | 0.182 ± 0.034
